Measured values published in the supplement of paper PMC12009370.
This is one part of the list. Most values come without repeats; read them as rough.

Tested on: SK-N-AS
Assay: drug sensitivity score (DSS) in combination with GSK2830371 (DSS (score)); neuroblastoma lines; SL-176 and GSK2830371 are WIP1 inhibitors; higher = more cytotoxic; extreme values may be limits of the assay
Settings: 72 h; co-treatment: GSK2830371 at IC25 in IMR-32
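Also: neuroblastoma cells in 384-well plates, each compound at five concentrations, luminescence read-out, DSS derived from fitted concentration-response curve combining IC50 with minimum and maximum inhibition.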

| SMILES | drug sensitivity score |
| --- | --- |
| O=c1sn(-c2cccc3ccccc23)c(=O)n1Cc1ccccc1 [Tideglusib] | 0 |
| CC(C)(O)CC(=O)NCCn1ccc2ncnc(Nc3ccc(Oc4cccc(C(F)(F)F)c4)c(Cl)c3)c21 | 0.1 |
| Cc1c(-c2c(-c3ccc(F)o3)sc3ncnc(O[C@H](Cc4ccccc4OCc4ccnn4CC(F)(F)F)C(=O)O)c23)ccc(OCCN2CCN(C)CC2)c1Cl | 2.1 |
| Cn1cc(-c2ccc(F)c(C(F)(F)F)c2)nc1C1CCN(c2ncnc3[nH]ncc23)CC1 | 0 |
| Nc1nc(NC2CC2)cc(-c2cccc(Cl)c2Cl)n1 | 9.7 |
| CNC(=O)c1cc(COc2nnc(Nc3ccc(Cl)cc3)c3ccoc23)ccn1 [Telatinib] | 0 |
| Nc1ncnc2c1c(COc1cccc(Cl)c1)nn2C1CCOCC1 | 0 |
| CCOc1ccn(-c2ccc(F)cc2)c(=O)c1C(=O)Nc1ccc(Oc2ccnc(N)c2Cl)c(F)c1 | 0 |
| NC(=O)c1cccc(-c2cccc(OC(=O)NC3CCCCC3)c2)c1 | 0 |
| CN(C(=O)c1ccc(F)cc1C(F)(F)F)C1CCN(c2nnc(-c3ccnn3C)c3ccccc23)CC1 [Taladegib] | 0 |
| C[C@]1(c2nc3c(C(N)=O)cccc3[nH]2)CCCN1 [Veliparib] | 0 |
| Nc1ncn([C@@H]2O[C@H](CO)[C@@H](O)[C@H]2O)c(=O)n1 [Azacitidine] | 5.1 |
| O=C(O)c1ccc(CN2CCC(CN[C@@H]3C[C@H]3c3ccccc3)CC2)cc1 | 0 |
| CN(C)Cc1c(C(=O)NCCOc2ccc(C(=O)NO)cc2)oc2ccccc12 [Abexinostat] | 18.9 |
